Assay results as given in US5134121A, “Nerve growth factor peptides” (Regents of the University of California, priority 1991, dated 1992).
Read-outs that look alike come from different tables or passages of the source. Not every detail of the peptide structures is certain; ends, links or a residue may be inferred. Where a SMILES comes first, the peptide text is derived from it.

Columns and labels:
[1] = system: dissociated embryonic chick dorsal root ganglia neurons; test: NGF bioassay: inhibition of NGF-supported neurite outgrowth (antagonist activity); type: cell-based; conditions: for reduction of number of neurite-bearing neurons: fixed concentration of NGF, FIG. 1A
[2] = system: dissociated embryonic chick dorsal root ganglia neurons; test: NGF bioassay: support of neurite outgrowth/neuronal survival without NGF (agonist activity); type: cell-based; conditions: for Lowest Concentration for Detected Agonist Activity / Lowest Concentration for Detected Agonist Activity, Retest Values: peptide without NGF
Description: After synthesis, the peptides of the present invention may then be assayed to determine their activity in the NGF bioassay using dissociated embryonic chick dorsal root ganglia neurons according to published procedures, such as, for example, Riopelle et al, (1981) J Neurobiol 12:175-186 or Varon et al (1981) Dev Brain Res 1:73-87. […] If the peptide of interest is capable of inhibiting neuronal attachment, survival or neurite outgrowth in the presence of NGF, the peptide is defined as an antagonist. Similarly, if the peptide is capable of supporting neuronal attachment, survival or neurite outgrowth in the absence of NGF, it is defined as an agonist.
NGF bioassays using dissociated embryonic chick dorsal root ganglia neurons have been described (Varon et al, (1981) Dev Brain Res 1:73-87); Riopelle et al, (1981) J Neurobiol 12:175-186). Approximately 30 dorsal root ganglia were dissected from each developmental day 8 chick embryo. Ganglia were incubated for 10 min at 37° C. in 5 ml of calcium-magnesium free balanced salt solution (CMF) and then for an additional 10 min in 0.01% trypsin in CMF. Ganglia were then washed twice with 5 ml 10% fetal calf serum in HAMS F-12 medium supplemented with Hanks balanced salt solution (culture medium) and dissociated in 1.5 ml culture medium by trituration (10-15 times) through a flamed glass pipet. The resulting cell suspension was diluted to 10 ml in culture medium, added to a 100 mm culture dish and incubated for 2 hours at 37° C. in 7% CO2 --93% air. During this incubation, non-neurons more readily attach to the substratum; therefore, the resulting supernatant contained a relatively enriched neuronal population (80-90% neurons). Each ganglion yielded 15,000-20,000 neurons; more than 95% of which excluded trypan blue.
Tissue culture wells (96 well tissue culture plates, A/2 Costar) were precoated with 0.1 mg/ml of polyornithine for 1-2 hours and then washed twice with 100 ul of sterile water. […] In a second experiment, 2 g/ml of polyornithine were used to coat the wells, and 12.5 μl each of NGF and the peptide to be tested were added. Additionally, 25 μl of the diluted cell suspension at the same density (e.g., 100,000 cells/ml (2500 cells/well)) were added.
The results obtained were similar in each experiment; FIG. 1A represents the data obtained from the second experiment. Cultures were incubated for 24 hr at 37° C. in 93% air - 7% CO2. Neurite outgrowth was assessed by phase contrast microscopy. The number of neurite-bearing cells in a fixed area of the well was counted. In selected cultures, neuronal survival may be assessed by the addition of MTT (3-(4,5-dimethylthiazol-2-yl)-2,5-diphenyl tetrazolium bromide, Sigma, St. Louis). Blue cellular staining is indicative of ongoing mitochondrial function. Maximum neurite outgrowth was obtained at approximately 800 pg/ml NGF.
Neurons were cultured in the presence of peptides without NGF.

NGF receptor = test: 125I-NGF direct binding assay on dorsal root ganglia cells; set-up: species or system chick; conditions: 125I-NGF 10 pM
[3] = day 8 chick DRG neurons, in presence of NGF, 24 hr, read-out: IC50 Antagonist Activity (concentration at which 50% reduction in neurite-bearing neurons is observed)
[4] = retest, read-out: IC50 Antagonist Activity, Retest Values

In the case of `CC[C@H](C)[C@H](NC(=O)CNC(=O)[C@H](CCCNC(=N)N)NC(=O)[C@H](CS)NC(=O)CNC(=O)[C@@H](N)CO)C(=O)N[C@@H](CC(=O)O)C(=O)N[C@@H](CO)C(=O)N[C@@H](CCCCN)C(=O)N[C@@H](Cc1c[nH]cn1)C(N)=O` [A1, SGCRGIDSKH-NH2] (H-SGCRGIDSKH-NH2), the IC50 [1, 3] is reported as over 1000 µM.

Work on `CC[C@H](C)[C@H](NC(=O)CNC(=O)[C@@H](N)CCCNC(=N)N)C(=O)N[C@@H](CC(=O)O)C(=O)N[C@@H](CO)C(=O)N[C@@H](CCCCN)C(=O)N[C@@H](Cc1c[nH]cn1)C(N)=O` [A2, RGIDSKH-NH2] (H-RGIDSKH-NH2) yielded an IC50 [1, 3] of over 1000 µM.

`CC[C@H](C)[C@H](NC(=O)[C@H](CCCNC(=N)N)NC(=O)[C@@H](NC(=O)[C@H](Cc1ccccc1)NC(=O)[C@H](CCCNC(=N)N)NC(=O)[C@H](Cc1c[nH]c2ccccc12)NC(=O)[C@H](C)N)[C@@H](C)CC)C(=O)N[C@@H](CC(=O)O)C(=O)N[C@H](C(N)=O)[C@@H](C)O` [B1, AWRFIRIDT-NH2] (H-AWRFIRIDT-NH2) gave an IC50 [1, 3] of 1150 µM.

For `CC[C@H](C)[C@H](NC(=O)[C@@H](N)CCCNC(=N)N)C(=O)N[C@@H](CC(=O)O)C(=O)N[C@H](C(N)=O)[C@@H](C)O` [B2, RIDT-NH2] (H-RIDT-NH2), the IC50 [1, 3] was 700 µM.

For `CC[C@H](C)[C@H](NC(=O)[C@H](CC(=O)O)NC(=O)[C@@H](NC(=O)[C@H](C)N)[C@@H](C)O)C(=O)N[C@@H](CCCCN)C(=O)NCC(=O)N[C@@H](CCCCN)C(=O)N[C@@H](CCC(=O)O)C(=O)N[C@H](C(=O)N[C@H](C(=O)N[C@H](C(N)=O)C(C)C)[C@@H](C)O)C(C)C` [C1, ATDIKGKEVTV-NH2] (H-ATDIKGKEVTV-NH2), the IC50 [1, 3] was over 500 µM, the “reduction of number of neurite-bearing neurons” value [1] was “to a lesser extent than that observed for C5” and the IC50 [1, 4] was 1100 µM.

For `CC[C@H](C)[C@H](NC(=O)[C@@H](N)CC(=O)O)C(=O)N[C@@H](CCCCN)C(=O)NCC(=O)N[C@@H](CCCCN)C(=O)N[C@@H](CCC(=O)O)C(=O)N[C@H](C(=O)N[C@H](C(=O)N[C@H](C(N)=O)C(C)C)[C@@H](C)O)C(C)C` [C2, DIKGKEVTV-NH2] (H-DIKGKEVTV-NH2), the “trophic effect relative to effect produced by NGF” value ([2]; 1 μmoles/ml, without NGF, FIG. 2) was 35%, the neurite-promoting activity ([2]; neurons cultured with peptide without NGF) was “demonstrated neurite-promoting activity” and the “Lowest Concentration for Detected Agonist Activity” value [2] was 0.500 µmol/mL. The “Lowest Concentration for Detected Agonist Activity, Retest Values” [2] was 0.500 µmol/mL, the IC50 [1, 3] was over 500 µM and the “reduction of number of neurite-bearing neurons” value [1] was “to a lesser extent than that observed for C5”. It also gave an IC50 [1, 4] of 1100 µM.

In the case of `CC(C)[C@H](NC(=O)[C@@H](NC(=O)[C@@H](NC(=O)[C@H](CCC(=O)O)NC(=O)[C@H](CCCCN)NC(=O)CNC(=O)[C@@H](N)CCCCN)C(C)C)[C@@H](C)O)C(N)=O` [C3, KGKEVTV-NH2] (H-KGKEVTV-NH2), the “Lowest Concentration for Detected Agonist Activity” value [2] is reported as “NA (No activity up to .500 concentration)”, the “Lowest Concentration for Detected Agonist Activity, Retest Values” [2] is reported as 1.000 µmol/mL and the IC50 [1, 3] is reported as 450 µM.

In the case of `CC[C@H](C)[C@H](NC(=O)[C@@H](N)CC(=O)O)C(=O)N[C@@H](CCCCN)C(=O)NCC(=O)N[C@@H](CCCCN)C(=O)N[C@@H](CCC(=O)O)C(N)=O` [C4, DIKGKE-NH2] (H-DIKGKE-NH2), the IC50 [1, 3] is reported as 500 µM.

For `NCCCC[C@H](NC(=O)CNC(=O)[C@@H](N)CCCCN)C(=O)N[C@@H](CCC(=O)O)C(N)=O` [C5, KGKE-NH2] (H-KGKE-NH2), the Ki ([1]; Ki=B/((A'/A)-1) from NGF dose-response curves with and without C5 (FIG. 1B), read-out: Ki (equilibrium dissociation constant, antagonist inhibition of agonist stimulation)) was 47.8 µM, the IC50 [1, 3] was 95 µM and the “blocking effect versus increased concentrations of NGF” value ([1]; fixed C5, increasing NGF, FIG. 1B) was “completely overcome by increased concentrations of NGF”. For the same molecule, the type of inhibition ([1]; parallel displacement of NGF dose-response curve) was “competitive”, the IC50 [1, 4] was 200 µM and the “change in specific binding of 125I-NGF” value (NGF receptor; peptide 1000 nmoles/ml (n=8)) was “no change”. For the same molecule, the “change in specific binding of 125I-NGF” value (NGF receptor; peptide 2000 nmoles/ml (n=4)) was “no change”.

With `CC[C@H](C)[C@H](NC(=O)[C@@H](N)CC(=O)O)C(=O)N[C@@H](CCCCN)C(=O)NCC(N)=O` [C6, DIKG-NH2] (H-DIKG-NH2) the IC50 [1, 3] was 300 µM.

Molecule `NCCCC[C@H](NC(=O)CNC(=O)[C@@H](N)CCCCN)C(N)=O` [C7, KGK-NH2] (H-Lys-Gly-Lys-NH2) has an IC50 [1, 3] of 125 µM.

`CC[C@H](C)[C@H](N)C(=O)N[C@@H](CCCCN)C(=O)NCC(N)=O` [C8, IKG-NH2] (H-Ile-Lys-Gly-NH2) was tested, and the IC50 [1, 3] was 1060 µM.

With `CC[C@H](C)[C@H](N)C(=O)N[C@@H](CCCCN)C(=O)NCC(=O)N[C@@H](CCCCN)C(N)=O` [C9, IKGK-NH2] (H-IKGK-NH2) the IC50 [1, 3] was 710 µM.

`CC[C@H](C)[C@H](NC(=O)[C@H](CC(=O)O)NC(=O)[C@@H](NC(=O)[C@H](C)N)[C@@H](C)O)C(=O)N[C@@H](CCCCN)C(=O)NCC(N)=O` [C10, ATDIKG-NH2] (H-ATDIKG-NH2) was tested, and the IC50 [1, 3] was over 1000 µM.
